The other results are listed elsewhere or left out. At the low end of the ranking, values are background and their order means little. Measured with an extract: partners may take part in the binding.

This assay deals with T1, HNF4alpha8 (COS-7 nuclear extract) (UniProt P41235-5).
T1 sequence: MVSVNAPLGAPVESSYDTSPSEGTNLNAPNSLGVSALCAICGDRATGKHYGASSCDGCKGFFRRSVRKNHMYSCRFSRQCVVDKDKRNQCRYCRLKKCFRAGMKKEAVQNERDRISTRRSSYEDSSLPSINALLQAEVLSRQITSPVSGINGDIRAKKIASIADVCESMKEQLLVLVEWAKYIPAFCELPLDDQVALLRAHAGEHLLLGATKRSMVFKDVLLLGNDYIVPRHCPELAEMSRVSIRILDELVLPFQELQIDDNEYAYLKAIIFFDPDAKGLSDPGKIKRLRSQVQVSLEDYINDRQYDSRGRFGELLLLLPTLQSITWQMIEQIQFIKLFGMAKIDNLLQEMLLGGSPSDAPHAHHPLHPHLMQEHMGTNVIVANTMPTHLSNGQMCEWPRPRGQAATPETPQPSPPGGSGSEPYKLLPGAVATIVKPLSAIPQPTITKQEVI
Put plainly: protein-binding microarray. To be noted: COS-7 nuclear extract on double-stranded Agilent 4x180k PBM; binding buffer, salt, pH and temperature not given; high values mean tight binding; double strand, one strand shown; sequences stand for … in …GCCTAGGGAGATTAGAGTATCGGTCGA
Regarding GTGAGGAATGCAACCACACCAACATGGACT, the binding signal (log2 normalized intensity) stood at 2.07. Consider ATACTGCCTTTCTAGAACCAGAATTCCAGA, for which the binding signal (log2 normalized intensity) was -1.26.

With CTTTGAGCATCGCTGGACTCTGCTCCTAAG, the binding signal (log2 normalized intensity) worked out at 4.67. Consider ATTCTTGTCAATGACCCTAATGGGGTACTT, for which the binding signal (log2 normalized intensity) came out at 2.36. For the sequence GGCTGTGAAATATTTGAGTTCTTCAAGTCA, the binding signal (log2 normalized intensity) worked out at 0.463. For AGGCAGCCACCCACAAGCCAAGGAGAGAGG, the binding signal (log2 normalized intensity) is -1.24.

Turning to GGGCCTACCTGCCTGAGCTATCTGTTTGAG, the binding signal (log2 normalized intensity) was -1.23. Take CTGCCTTATCGTATTCTTATCAATACCTGT: the binding signal (log2 normalized intensity) worked out at 1.36. Then AGTATCATGTTGGCATTCCAGGATGAAGGA, with -0.0479; and CACTGTTTATTTTGTGTGATACTCAAGGCA, with 1.66; and TTAAGGCCAGATGGCCACCCTTCAGCAAAT, with -1.27. To GCTGTCCAAGGTGCTAGCTCCGACTCAGTG belongs -1.33. Then TAATGGCAGAATCAAAGGTCAAAATATCTG, with 4.27; and GAACCCACATCACTGGCCAAAGGTAATAGG, with 0.524.

As to GGAACACGAGGTGAGAGGCGGAACAAGGCT, the binding signal (log2 normalized intensity) is -1.24. To CAGTCTATCAGACCAGCATTCTTTCTGCTG belongs -1.19; to GGCATCTACTTTTAAAACGCTCAAATAAGC, -1.33. Take CAAACCTTTGACCTTTCCATAGTTCCGAGT: the binding signal (log2 normalized intensity) stood at 4.3. Then ACCAGGCAGTTTCCCGGTTCCTGATCTCAG, with -0.87; and GGTGGAATGGAAAGAATATGAACTTTGGAA, with 6.33.

In the case of AATATAGGATCATGTTGTCTGCAAACAGAG, the binding signal (log2 normalized intensity) is -0.445. As for CACCTTCTTTCTCCCAGAGGTCGATCTGAT, the binding signal (log2 normalized intensity) was 2.25.

On to CAGACCCTGGAATTCCAGAAATCTTACTGA, for which the binding signal (log2 normalized intensity) is -1.36.

For TACCATTCCCACCCCATTTCACAGCAACCT, the binding signal (log2 normalized intensity) was determined as 1.42. To TTTGAGGATTATGGAGATGGAGATGGCCTG belongs 0.867; to CTGAACTTTTGGCTCCCTGGGGTTAAAATG, 2.5; to CCACGCCCGCCGCCAGGTGGCCGAGCAGGA, -1.3.

Take GATTACATTGAGTCCACTGAGATCACTTGG: the binding signal (log2 normalized intensity) worked out at 0.973. Then CCCCGGGGCCGCCTTGGAAAACCCGGCGCG, with -1.19.

Consider ATTACTGACCCTTGCACTGTAAGATCAAGA, for which the binding signal (log2 normalized intensity) was 4.11. On to ACAGGCTTTGAGCATCGCTGGACTCTGCTC, for which the binding signal (log2 normalized intensity) turned out to be 4.91. With CCACAGTCCTTAAGATCCAAAGGAGTGGTC, the binding signal (log2 normalized intensity) is 0.496. To TAAGTTTCTGTCTCACCTGTAAATGTCTCT belongs 0.512; to TAATGCGACTTGCCTTGTGTACTCTATCCA, 1.21. GCGGTCCGGACTCTGCCCCACAATTCTTGG: the binding signal (log2 normalized intensity) is 3.12. Then TTGCCTACATAAGGAGCAGCACTTTGACCT, with 5.88; and TTTGGGGGTTGGTATTACAAAGCAATCTAC, with 0.18. As to TGCTAGACAAGGGAATTACTCTTCTATTAC, the binding signal (log2 normalized intensity) was -1.29. As to TTGGCCTCTACAGCTACTCCAGCTGGAGAA, the binding signal (log2 normalized intensity) is -1.04. Then GTCATAAATACTCATTATGTTGCTGATAAA, with 1.18. To CAATTCCTTATCTCGTTCTGATAGCAAGGA belongs 1.51; to CAAAGGGCACCCTTGATGTGTATTTGTAGC, 1.61; to TTGCTTAAGCTTTCTGTCTGCAGCTGAACC, 1.42.

On to ACCTTTCTCCCTTTTCACAGGAGAGGAGAA, for which the binding signal (log2 normalized intensity) is 0.813. To GGTTTTCGGTTTTCAAATGAACCCGGCAGG belongs 2.45. Then TATAGTTTATCTACCTTTGTACCTTTAGTA, with 4.65; and GGCCATCTTCCTCAACATGATGCTTTAGGC, with -0.578. As for CAAGAGTGACCTTTGCTCCAGTTCCCAATA, the binding signal (log2 normalized intensity) was found to be 6.59. As to ATGACAATAAATTATACCAACTATTTAAGA, the binding signal (log2 normalized intensity) was -1.36.

In the case of TGATCCTGAAGACAAAGCACAATCAAAGCA, the binding signal (log2 normalized intensity) was -1.35. Take CAACTTAACCCCAGTTTAGCAATTTGCTCT: the binding signal (log2 normalized intensity) is 0.99. Then ATGTCTTTCTGGCTGGAGAGGAGGTTATCT, with 0.88. Then CTGCCTCCCATCTTGCAGCTGACCCTGGCC, with 3.39; and GCCCAGCATGCCCCGCGCCGCGTCCCTTCC, with 1.32. For the sequence AGCCGTCTGGTAAATTTCTAACACTCCCCA, the binding signal (log2 normalized intensity) turned out to be 2.15. For the sequence TTATAAACTTGTTTGGGATTAAAGGATCAA, the binding signal (log2 normalized intensity) was 1.11.

In the case of GTCTCATTGCCCCTTGAGCTAAATAATTAC, the binding signal (log2 normalized intensity) is 2.29. To ACTTCATCTAAGTGGGTCTAGGTTCTGGGG belongs 1.03; to GGAGCCACTGCAGCTTTCTGAGTAGGACAG, -1.25. Regarding AGTCGACCCTCTCTGGATGCAGGTCGCCGG, the binding signal (log2 normalized intensity) was determined as 0.398. Then TCTGTTAGGAATGTCATGCAGCTAAAAGCA, with -1.37; and ATGCATTCCATATGGATTAAATCTTGTTGG, with 0.559. In the case of TCAGTCCAATTCACAGAACTCCCTAAGTGG, the binding signal (log2 normalized intensity) is -1.24. Consider TCTGACTGCACTGCAATGACAATAAATTAT, for which the binding signal (log2 normalized intensity) was -1.32. Then TTAAGGGCAAAGGTTACAATTGTCCCCAAG, with 5.54; and CGCATTTCTGCTTCTTCTCATTCTTGGAAT, with 1.49; and GTGCAACAGGAGCCCAGAGACAGTGGAATC, with -1.27.

For the sequence TAATCTGGCTCCAAAGTCTATGTGTGCTTT, the binding signal (log2 normalized intensity) was 2.41. Then TGTCACACACAGACTTGGGTTCAAAGAGCA, with 4.78; and AGGGTGACCCCTGTGGTACAGGCAGTGACT, with 2.06.

Take TTGGGGTCAAGGCCTTTAAGAAGTAGGTGT: the binding signal (log2 normalized intensity) was 1.03. On to CAGTTTGAAATTAGGCAATATGAGTAGAGC, for which the binding signal (log2 normalized intensity) was -1.23. For the sequence AAAACTCAGATTCCTATGGTAAATGAATAG, the binding signal (log2 normalized intensity) is -1.3.

(Values after article PMC10726135.)
